Measured values taken from PubChem BioAssay AID485294 (National Center for Advancing Translational Sciences (NCATS), 2010).
In all, about 370,000 compounds went through this assay and about 150 (0.041%) were called active. The shares of active, inactive and inconclusive entries below differ from those in the screen. Calls come from the whole dose curve; as a rule, active = well fitted inhibition curve with a large enough effect; inconclusive = small, poorly fitted or top-dose-only effect; inactive = flat fitted curve, though single readings scatter. Potencies of inconclusive entries are left out as doubtful fits.

Molecular target: Beta-lactamase (Escherichia coli (strain K12)) (UniProt P00811)
Assay: qHTS Inhibitors of AmpC Beta-Lactamase (assay with detergent); note: nearly all actives have a fitted effect of over 25% in size;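 for activity change, negative = inhibition: 0% = no-compound wells and -100% = no-enzyme wells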
Settings: AmpC hydrolysis of nitrocefin, absorbance 480 nm, 0.01% Triton; activity change, negative = inhibition: at 114 µM (top of the series)
Outline: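 AmpC (5.3 nM in the dispensed reagent) in 20 mM phosphate pH 7.0 with 0.01% (detergent screen) or 0.0001% Triton X-100 was preincubated with compounds for 15 min at room temperature. Nitrocefin was then added from an 800 uM solution, and hydrolysis was followed at 480 nm.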
Potency is the fitted concentration of half-maximal effect; tags give direction and shape of the fitted curve.

Chain of UniProt P00811 (P00811 whole entry, looked up): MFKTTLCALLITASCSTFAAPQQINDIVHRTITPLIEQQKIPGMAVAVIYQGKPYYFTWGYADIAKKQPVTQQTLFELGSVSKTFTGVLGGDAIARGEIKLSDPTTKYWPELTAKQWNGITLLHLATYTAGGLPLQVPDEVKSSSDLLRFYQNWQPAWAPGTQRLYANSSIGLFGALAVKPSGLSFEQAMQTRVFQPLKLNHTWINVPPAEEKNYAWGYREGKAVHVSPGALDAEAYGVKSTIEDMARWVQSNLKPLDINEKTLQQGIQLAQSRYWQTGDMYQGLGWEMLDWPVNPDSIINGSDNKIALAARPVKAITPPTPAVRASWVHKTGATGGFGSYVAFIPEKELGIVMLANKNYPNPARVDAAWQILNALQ

Row | Compound | activity change, negative = inhibition | Potency
1 | O=C(Nc1cccc(Cl)c1)c1cnn2cccnc12 | inactive: -0.283% | –
2 | Cc1ccc(-n2ncc(C(=O)Nc3ccc4c(c3)OCO4)c2C2CCN(C(=O)OC(C)(C)C)CC2)c(C)c1 | inactive: 24.9% | –
3 | CC(C)(C)OC(=O)N1CCN(C(=O)c2[nH]cnc2C(=O)Nc2cccc(Cl)c2)CC1 | inactive: -1.96% | –
4 | CCOC(=O)C1CCCN(c2c(N3CCN(C)CC3)c(=O)c2=O)C1 (centres undefined) | – | inconclusive [inhibitor, single point]
5 | CCOc1ccc(S(=O)(=O)N2CCCC(C(=O)NCc3ccncc3)C2)cc1C (centres undefined) | inactive: -2.77% | –
6 | O=C1NCCN1C(=O)N(c1ccccc1)c1ccccc1 | – | inconclusive [inhibitor, single point]
7 | CCOc1cccc2cc(-c3cn4cc(C)ccc4n3)c(=O)oc12 | inactive: 2.07% | –
8 | Nn1c(SCC(=O)N2CCCCCC2)nnc1-c1ccncc1 | – | inconclusive [inhibitor, single point]
9 | COC(=O)c1cccc(NC(=O)c2ccc[n+]([O-])c2)c1 | – | inconclusive [inhibitor, full curve, poor fit]
10 | O=c1oc2cc(O)ccc2c2oc3cc(O)ccc3c12 | – | inconclusive [inhibitor, partial curve, poor fit]
11 | O=C(CN(CCc1ccccc1)C(=O)CNS(=O)(=O)c1ccccc1)NCc1ccco1 | – | inconclusive [inhibitor, partial curve, poor fit]
12 | COc1cc(NC(=O)CCc2nc3cccnc3n2Cc2cccs2)cc(OC)c1OC | inactive: -6.52% | –
13 | Cc1ccc(OCC(O)CN2CCN(CCO)CC2)c(C)c1 (centres undefined) | – | inconclusive [inhibitor, full curve, poor fit]
14 | Cc1ccc(OCC(=O)c2cc(C)c(C)cc2C)c([N+](=O)[O-])n1 | – | inconclusive [inhibitor, full curve, poor fit]
15 | CN(CC(=O)Nc1cccc(F)c1)C(=O)CC1CCCC1 | – | inconclusive [inhibitor, partial curve]
16 | Cc1ccc(C(=O)NCCNc2ncc(C(F)(F)F)cc2Cl)cc1[N+](=O)[O-] | – | inconclusive [inhibitor, full curve]
17 | CCc1ccccc1N(C)C(=O)c1cn(-c2cccc(OC)c2)c(=O)c2ccccc12 | inactive: 2.65% | –
18 | CCn1c(=O)sc2cc(NS(=O)(=O)c3ccc(C)cc3)ccc21 | inactive: 0.804% | –
19 | Cn1c(SCC(=O)N2CCCc3ccccc32)nnc1-c1cccs1 | – | inconclusive [inhibitor, partial curve]
20 | Cc1ccc(S(=O)(=O)N(C)c2c(C)ccc(S(=O)(=O)N3CCN(C)CC3)c2C)cc1 | – | inconclusive [inhibitor, full curve]
21 | Cc1noc(C)c1C(=O)Nc1nnc(-c2ccccc2)s1 | – | inconclusive [inhibitor, full curve, poor fit]
22 | CNCC(=O)N(CC(C)C)c1c(N)n(CC(C)C)c(=O)[nH]c1=O | inactive: -1.06% | –
23 | COc1ccc2oc(=N)c(C(=O)Nc3ccc(Cl)cc3)cc2c1 | – | inconclusive [inhibitor, full curve]

Row | Compound | activity change, negative = inhibition | Potency
24 | Cc1cccc(N2CCN(C(=O)C(Cc3ccccc3)NC(N)=O)CC2)c1C (centres undefined) | inactive: -3.42% | –
25 | CCOC(=O)N1CCN(C(=O)c2c(-c3ccccc3)noc2C)CC1 | – | inconclusive [inhibitor, full curve]
26 | CC(CCc1ccccc1)NC(=O)Cc1ccc(Br)cc1 (centres undefined) | – | inconclusive [inhibitor, full curve, poor fit]
27 | CSc1ccc(/C=N/NC(=O)c2ccc(-n3cnnn3)cc2)cc1 | inactive: 0.546% | –
28 | Nc1ccc(-c2nc3c(Cl)c(N)ccc3[nH]2)cc1 | inactive: -4.59% | –
29 | COC1CCCCC1Nc1cc(C)ccc1C (centres undefined) | – | inconclusive [inhibitor, single point]
30 | C=COCCn1c(-c2nonc2N)nc2ccccc21 | – | inconclusive [inhibitor, partial curve]
31 | O=C(COC(=O)c1cccc(NC(=O)c2ccco2)c1)c1ccc(Br)cc1 | – | inconclusive [inhibitor, partial curve]
32 | CCOC(=O)c1sc(-c2ccccc2)cc1NC(=O)Nc1ccccc1 | – | inconclusive [inhibitor, single point]
33 | CC1=NN(c2ccc(Cl)c(C(=O)O)c2)C(=O)C1 | inactive: -3.13% | –
34 | FC(F)(F)c1nnc2ccc(-n3ccnc3)nn12 | – | inconclusive [inhibitor, partial curve, poor fit]
35 | Cc1ccc(O)c(C2=Nc3ccccc3N=C(c3cccs3)C2)c1 | – | inconclusive [inhibitor, partial curve, poor fit]
36 | Cc1c(C(=O)N2CCC(N3CCSCC3)CC2)oc2c(F)cccc12 | – | inconclusive [inhibitor, single point]
37 | CCc1ccc(NC(=O)CN2C(=O)CCSc3ccccc32)cc1 | – | inconclusive [inhibitor, single point]
38 | Cc1ccc(CNC(=O)C2CCCN(S(=O)(=O)c3cn(C)cn3)C2)cc1 (centres undefined) | inactive: -0.0659% | –
39 | C[C@@]12C(=O)N(c3cccc(Br)c3)C(=O)N1[C@H](c1ccc(Cl)cc1)[C@@H]1C(=O)N(C3CCCCC3)C(=O)[C@@H]12 | – | inconclusive [inhibitor, partial curve, poor fit]
40 | CCC(=O)NC(c1ccccc1Cl)c1c(O)ccc2ccccc12 (centres undefined) | inactive: -10.4% | –
41 | Cn1nnnc1SCCCNCc1ccc(-c2ccc(F)c(Cl)c2)o1 | inactive: 20.5% | –
42 | CC(C)(C)NCC(O)COc1ccccc1C(C)(C)C (centres undefined) | inactive: -20.8% | –
43 | Cc1cccc(N2C(=O)C3CC3C2=O)c1 (centres undefined) | – | inconclusive [inhibitor, full curve, poor fit]
44 | O=C(Cc1ccc2c(c1)OCCO2)Nc1cc(Cl)ccc1N1CCOCC1 | – | inconclusive [inhibitor, full curve]
45 | COc1ccc(-c2nnc(NC(=O)c3ccc(F)cc3)o2)cc1 | – | inconclusive [inhibitor, full curve]
46 | CNC(=S)N(CCc1c(C)[nH]c2ccc(C)cc12)Cc1cccs1 | inactive: 3.73% | –

Row | Compound | activity change, negative = inhibition | Potency
47 | COc1ccc(/C=C/C(=O)NC(=S)NN2CCCCC2c2cccnc2)cc1OC (centres undefined) | – | inconclusive [inhibitor, full curve, poor fit]
48 | COc1ccc(NC(=O)CN(C)C(=O)CNC(=O)c2ccc3ccccc3c2)cc1 | – | inconclusive [inhibitor, single point]
49 | CC(O)C(NC(=O)OCc1ccccc1)C(=O)OCc1ccccc1 (centres undefined) | – | inconclusive [inhibitor, single point]
50 | CCOC(=O)c1ccc(N2Cc3ccccc3C2=N)cc1 | – | inconclusive [inhibitor, full curve, poor fit]
51 | CN1CCN(C(=O)C2CCN(S(=O)(=O)c3ccccc3[N+](=O)[O-])CC2)CC1 | – | inconclusive [inhibitor, full curve, poor fit]
52 | CCCCN(C(=O)c1ccc([N+](=O)[O-])o1)c1c(N)n(CC(C)C)c(=O)[nH]c1=O | – | inconclusive [inhibitor, full curve, poor fit]
53 | O=C1C2CCCCC2C(=O)N1c1nccs1 (centres undefined) | – | inconclusive [inhibitor, single point]
54 | COc1ccc(-n2c(SCC(=O)Nc3ccc4c(c3)OCO4)nc3ccccc3c2=O)cc1 | – | inconclusive [inhibitor, partial curve, poor fit]
55 | COc1cccc(NC(=O)CNC(=O)Cn2cnc3sc(C)c(C)c3c2=O)c1 | – | inconclusive [inhibitor, full curve, poor fit]
56 | O=C(NCC(c1ccc2c(c1)OCO2)N1CCOCC1)C(=O)Nc1ccccc1 (centres undefined) | inactive: 1.65% | –
57 | Brc1ccc(-c2nc(-c3cccnc3)no2)o1 | – | inconclusive [inhibitor, full curve, poor fit]
58 | CCCOC(=O)c1ccc(NC(=O)CCOc2ccccc2)cc1 | – | inconclusive [inhibitor, single point]
59 | CCCCC(=O)Nc1nn(CC(C)C)c2nc3ccccc3cc12 | – | inconclusive [inhibitor, full curve, poor fit]
60 | CCOC(=O)c1sc(NCC2CCCO2)nc1C (centres undefined) | – | inconclusive [inhibitor, full curve, poor fit]
61 | CCOc1ccc(NC(=O)CN(C)C(=O)c2c(C)nn(-c3ccccc3)c2Cl)cc1OCC | – | inconclusive [inhibitor, full curve, poor fit]
62 | O=C1CSC(=S)N1/N=C/c1cc(Br)c(O)c(Br)c1 | – | inconclusive [inhibitor, partial curve]
63 | CCOC(=O)N1C/C(=C\c2ccccc2)C(=O)/C(=C/c2ccccc2)C1 | inactive: 2.84% | –
64 | CCOC(=O)c1c(S(=O)(=O)N2c3ccccc3CC2C)c(C)n(C)c1C (centres undefined) | – | inconclusive [inhibitor, full curve, poor fit]
65 | CC(=O)c1c(C)[nH]c(C(=O)OCC(=O)Nc2sc3c(c2C#N)CCC(C)C3)c1C (centres undefined) | – | inconclusive [inhibitor, partial curve]
66 | C#CCN1C(C)=C(C(=O)OC)C(c2cccc([N+](=O)[O-])c2)C(C(=O)OCC)=C1C (centres undefined) | – | inconclusive [inhibitor, partial curve, poor fit]
67 | CCCn1c(O)c(N=NC(=O)CNC(=O)c2cccnc2)c2ccccc21 | inactive: -10.9% | –
68 | O=C(NCCN1CCOCC1)c1cc(-c2ccc(Cl)c(Cl)c2)on1 | inactive: -2% | –
69 | O=C(NC1CCS(=O)(=O)C1)c1cccc(Br)c1 (centres undefined) | – | inconclusive [inhibitor, full curve, poor fit]
